Reference: the BET-seq Pho4 binding data (Le et al. 2018)
The other results are listed elsewhere or left out. These are noisy estimates, calculated here from bound and input reads.

What follows are sequences tested against T1, Pho4 (S. cerevisiae) (UniProt P07270) (assay: relative binding free energy (BET-seq); higher = weaker binding). Settings: reference: library average.
T1 sequence: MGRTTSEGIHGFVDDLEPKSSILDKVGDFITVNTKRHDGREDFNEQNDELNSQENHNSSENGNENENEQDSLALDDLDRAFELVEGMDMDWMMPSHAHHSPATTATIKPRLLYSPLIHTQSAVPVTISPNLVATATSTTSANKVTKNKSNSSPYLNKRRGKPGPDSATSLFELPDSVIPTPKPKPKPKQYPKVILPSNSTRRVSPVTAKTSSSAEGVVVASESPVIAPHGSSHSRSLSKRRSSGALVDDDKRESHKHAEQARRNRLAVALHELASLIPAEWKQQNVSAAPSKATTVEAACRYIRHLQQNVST

Sequence	relative binding free energy
TAATTCACGTGGTACT	0.15 kcal/mol
GAAAACACGTGGTGGT	0.07 kcal/mol
TTGTACACGTGAGGCT	0.21 kcal/mol
GAGATCACGTGCTTGT	0.15 kcal/mol
TATGGCACGTGGGTAA	-0.16 kcal/mol
AGTTGCACGTGTAGGC	0.03 kcal/mol
TTATGCACGTGCATGT	-0.04 kcal/mol
AGGGACACGTGTAGAG	-0.04 kcal/mol
GTGTTCACGTGCATTA	0.24 kcal/mol
TGTCACACGTGATCGG	0.26 kcal/mol
TTGGACACGTGTTTTA	-0.01 kcal/mol
ATTGTCACGTGTGACA	0.13 kcal/mol
TATGTCACGTGCTTTG	0.01 kcal/mol
TTCTTCACGTGTGAGG	0.31 kcal/mol
AGTATCACGTGAGTCG	0.15 kcal/mol
AGGTGCACGTGAGTAG	0.07 kcal/mol
ATGTACACGTGGTGGG	-0.11 kcal/mol
AGTTCCACGTGGGTAT	-0.04 kcal/mol
TGTCACACGTGGATGT	0.03 kcal/mol
TGTGACACGTGTTTGA	0.04 kcal/mol
AGCTTCACGTGTGTAG	0.13 kcal/mol
GATAGCACGTGACGTT	0.24 kcal/mol
ACTTTCACGTGTTTTG	0.19 kcal/mol
TTTTCCACGTGAGTAT	0.48 kcal/mol
CGGTCCACGTGTGTGT	0.01 kcal/mol

Sequence	relative binding free energy
GTCGTCACGTGGGAGA	0.02 kcal/mol
CGGATCACGTGATTGG	0.27 kcal/mol
GCAGGCACGTGTAGGT	0.01 kcal/mol
TCTTGCACGTGAGTGG	0.27 kcal/mol
ATAATCACGTGTTGAA	0.09 kcal/mol
AGTAACACGTGGAGAG	0.03 kcal/mol
TGGAGCACGTGTGTGT	-0.06 kcal/mol
GGAGCCACGTGTGTGG	0.02 kcal/mol
TGGGACACGTGGAATT	0.11 kcal/mol
TTTTTCACGTGCGTAT	0.38 kcal/mol
TATTCCACGTGTTTAT	-0.01 kcal/mol
ATGTACACGTGGGGGT	-0.16 kcal/mol
ATGTGCACGTGTCGGT	-0.02 kcal/mol
TGGTTCACGTGATTTC	0.53 kcal/mol
TAATGCACGTGAGGAC	0.36 kcal/mol
TTTATCACGTGGCGCT	0.14 kcal/mol
TCTGTCACGTGTGTGG	0.12 kcal/mol
GAGAGCACGTGGTTGG	-0.12 kcal/mol
AGTGTCACGTGGTCGA	-0.07 kcal/mol
TCCGTCACGTGTGAGG	0.24 kcal/mol
GTAGGCACGTGAAGCT	0.09 kcal/mol
TTAGTCACGTGTTGAA	0.09 kcal/mol
GTTGGCACGTGGGGCA	-0.24 kcal/mol
TATGTCACGTGCGGTA	-0.04 kcal/mol
TGTAGCACGTGTTACG	-0.16 kcal/mol

Sequence	relative binding free energy
TTGGTCACGTGGTCGT	0.02 kcal/mol
TGGGCCACGTGGAGTA	0.03 kcal/mol
AGTATCACGTGCGAGT	0.17 kcal/mol
AGATGCACGTGTGTTG	-0.09 kcal/mol
TGGAGCACGTGTTCAT	-0.15 kcal/mol
CTGTGCACGTGTCGTG	0 kcal/mol
TAGTTCACGTGGGTGA	0.21 kcal/mol
TGATGCACGTGCCGGG	0 kcal/mol
TGTGTCACGTGCGTCG	-0.09 kcal/mol
ATTTCCACGTGGGTGT	-0.1 kcal/mol
AAGTTCACGTGGTGAG	0.17 kcal/mol
GGTGTCACGTGCGTAT	0.09 kcal/mol
TAGTGCACGTGTACGG	0.01 kcal/mol
CGGGGCACGTGTTAAG	-0.14 kcal/mol
TTGGTCACGTGAGTCA	0.49 kcal/mol
GTTTGCACGTGTATGA	0.05 kcal/mol
TAATTCACGTGATTAA	0.22 kcal/mol
AGGGTCACGTGGCGAA	-0.06 kcal/mol
CATTTCACGTGTGGTG	0.34 kcal/mol
AGGAGCACGTGGAAAG	0.02 kcal/mol
GAATTCACGTGGTGTC	0.16 kcal/mol
AACGTCACGTGGTAGG	0.1 kcal/mol
TAGATCACGTGTGAGA	0.25 kcal/mol
ATGCACACGTGTTTGG	0.13 kcal/mol
TGATACACGTGTTTTG	-0.02 kcal/mol

Sequence	relative binding free energy
GGAGACACGTGTAGGT	0.07 kcal/mol
GGTGACACGTGGCGCG	-0.03 kcal/mol
TGGAACACGTGCAGTG	-0.04 kcal/mol
CGGCTCACGTGTGTGT	0.19 kcal/mol
TAGATCACGTGTGGCG	0.03 kcal/mol
GGTTGCACGTGTCAAG	-0.04 kcal/mol
TCTAACACGTGGGTGT	-0.26 kcal/mol
TTATGCACGTGGTATA	-0.17 kcal/mol
TCTTTCACGTGGTTAG	0.12 kcal/mol
GGGGGCACGTGGAAAA	0.04 kcal/mol
GTGAGCACGTGTTTTG	-0.03 kcal/mol
TTTGTCACGTGGTCGG	0.07 kcal/mol
GGGCGCACGTGGGCTG	-0.17 kcal/mol
TTTCTCACGTGGCATG	0.13 kcal/mol
TCTTGCACGTGGGTCT	-0.08 kcal/mol
TTTTGCACGTGGGCCA	-0.18 kcal/mol
TTAATCACGTGCTTTG	0.13 kcal/mol
TCACGCACGTGGTTGT	-0.07 kcal/mol
TGTTCCACGTGTGTGC	0.12 kcal/mol
CAAGTCACGTGGTAGT	0.07 kcal/mol
ATGGACACGTGTCGTT	0.15 kcal/mol
TAGTTCACGTGGGGTT	0.1 kcal/mol
AGTTTCACGTGGGAAC	0.22 kcal/mol
GAGGACACGTGAAGGT	0.34 kcal/mol
TCGGGCACGTGGGGAG	-0.24 kcal/mol

Sequence	relative binding free energy
TTCAGCACGTGGTGTC	-0.09 kcal/mol
GGAGACACGTGTGAAT	0.18 kcal/mol
AATTGCACGTGCGTGG	-0.2 kcal/mol
CTCGGCACGTGTAAGT	0.1 kcal/mol
ATAATCACGTGTAGGT	0.1 kcal/mol
AGGCGCACGTGGGAAG	-0.03 kcal/mol
GAGGGCACGTGGGATA	-0.23 kcal/mol
AGGAACACGTGCTGGT	0.12 kcal/mol
TTGGTCACGTGGGGTT	0.01 kcal/mol
TGGAGCACGTGCGTCG	-0.11 kcal/mol
GGGGGCACGTGGTTCA	-0.14 kcal/mol
CAAATCACGTGGGTGT	0.09 kcal/mol
AGTTACACGTGCATGG	0.05 kcal/mol
TAAAGCACGTGTTTTA	-0.14 kcal/mol
ATTATCACGTGTGTTT	0.3 kcal/mol
CTTATCACGTGAATGG	0.31 kcal/mol
TGATGCACGTGGTCGG	-0.29 kcal/mol
GGCGCCACGTGGGGTC	-0.11 kcal/mol
GGCCTCACGTGTGATT	0.38 kcal/mol
CGTTGCACGTGCGTGG	-0.17 kcal/mol
AGATTCACGTGAGAGT	0.43 kcal/mol
TTTATCACGTGCTGAG	0.1 kcal/mol
TTATTCACGTGTATGT	0.2 kcal/mol
TGAGGCACGTGGCGGT	-0.18 kcal/mol
GGCGCCACGTGTTGAG	0.1 kcal/mol

Sequence	relative binding free energy
TCTTTCACGTGGTGGG	0.28 kcal/mol
ATAATCACGTGGGGAA	-0.03 kcal/mol
TTAATCACGTGAGGCG	0.09 kcal/mol
TGGTCCACGTGAGAGG	0.24 kcal/mol
TGATGCACGTGTTGAT	-0.1 kcal/mol
ACTGGCACGTGAGGTG	0.07 kcal/mol
TTGTACACGTGGGGAT	0.04 kcal/mol
GCTGGCACGTGGGTTT	-0.16 kcal/mol
CAGGGCACGTGTGGTT	-0.01 kcal/mol
CGTAGCACGTGCGTTG	-0.17 kcal/mol
AGGGACACGTGATGTG	0.14 kcal/mol
GTGGACACGTGTAAGG	0.15 kcal/mol
AGGATCACGTGGGGAG	0 kcal/mol
GAATACACGTGTTTTG	0.05 kcal/mol
TTATTCACGTGAGAAT	0.47 kcal/mol
AGGGGCACGTGTGGCT	0 kcal/mol
CTTTGCACGTGTTTAG	0.1 kcal/mol
AGGGGCACGTGATGGG	0.04 kcal/mol
GAGTTCACGTGTGGCA	0.24 kcal/mol
ATCGTCACGTGCGGTT	0.06 kcal/mol
TGGAGCACGTGTTCAG	-0.07 kcal/mol
